The target in the test is T1, human pre-TCR (pTα chain of the pre-T cell receptor) on the cell surface (human, UniProt Q6ISU1 24-281).
T1 sequence (looked up): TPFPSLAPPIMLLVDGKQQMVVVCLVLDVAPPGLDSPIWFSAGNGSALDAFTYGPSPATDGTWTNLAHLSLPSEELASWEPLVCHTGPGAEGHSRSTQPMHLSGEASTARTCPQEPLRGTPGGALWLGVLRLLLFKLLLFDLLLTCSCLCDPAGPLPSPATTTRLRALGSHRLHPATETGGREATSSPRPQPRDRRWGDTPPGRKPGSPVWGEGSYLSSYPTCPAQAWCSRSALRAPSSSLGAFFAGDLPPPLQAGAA
Put plainly: cell-based or functional assay.

B1: CARpTα.41BB (other, human)
chain: EVQLVESGGGLVKPGGSLQLSCAASGFTFNRYAMSWVRQTPEKRLEWVAAISSGGSYTYYPDSVKGRFIISRDNAKNTLSLQMSSLRSEDTAMFYCARLRVVAEGGSYFDYWGQGTTLTVSSGGGGSGGGGSGGGGSGGGGSDVLMTQTPLSLPVSLGDQASISCRSSQSILHSNGNTYLEWYLQKPGQSPKLLIYKVSNRFSGVPDRFSGSGSGTDFTLKISRVEAEDLGVYYCFQGSHVPVTFGSGTKLEIKTTTPAPRPPTPAPTIASQPLSLRPEACRPAAGGAVHTRGLDFACDIYIWAPLAGTCGVLLLSLVITLYCKRGRKKLLYIFKQPFMRPVQTTQEEDGCSCRFPEEEEGGCEL[in this place about 120 residues]
On to B1, for which the “specific lysis of JR-Mig-pTα cells at E:T cell ratio 0.25:1” value is not above 80% and the “specific lysis of JR-Mig-pTα cells at E:T cell ratio 0.5:1” value was not above 90%.

The record behind these values is patent publication EP4491192A1 (Consejo Superior De Investigaciones Científicas, dated 2025).
